Assay results published in the supplement of paper PMC8728848.
This is one part of the list.

Key:
Assay in all cases: glycan array binding signal (z-score within array); higher = stronger binding
Conditions in all cases: glycan notation: IUPAC condensed, linker removed
[1] = target: Fuc(a1-2)Gal(b1-4)GlcNAc(b1-3)Gal(b1-4)GlcNAc(b1-3)Gal(b1-4)GlcNAc
In short: (§1)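 Negative Z-scores can be read as non-binding. The Z-score is calculated within each array and then averaged across arrays of one protein sequence at different concentrations or buffers and across linkers. Arrays, 3228 in all, were curated from the Consortium for Functional Glycomics database and kept only where the protein sequence was available.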

[2] = target: Fuc(a1-2)Gal(b1-4)GlcNAc(b1-3)GalNAc
In short: as §1

[3] = target: Fuc(a1-2)Gal(b1-4)GlcNAc(b1-3)[Fuc(a1-2)Gal(b1-4)GlcNAc(b1-6)]GalNAc
In short: as §1

[4] = target: Fuc(a1-2)Gal(b1-4)GlcNAc(b1-3)[Fuc(a1-3)[Gal(b1-4)]GlcNAc(b1-6)]Gal(b1-4)Glc
In short: as §1

[5] = target: Fuc(a1-2)Gal(b1-4)GlcNAc(b1-6)GalNAc
In short: as §1

[6] = target: Fuc(a1-2)Gal(b1-4)GlcNAc6S
In short: as §1

[7] = target: Fuc(a1-2)Gal(b1-4)[Fuc(a1-3)]GlcNAc
In short: as §1

[8] = target: Fuc(a1-2)Gal(b1-4)[Fuc(a1-3)]GlcNAc(b1-2)Man(a1-3)[Fuc(a1-2)Gal(b1-4)[Fuc(a1-3)]GlcNAc(b1-2)Man(a1-6)]Man(b1-4)GlcNAc(b1-4)[Fuc(a1-6)]GlcNAc
In short: as §1

[9] = target: Fuc(a1-2)Gal(b1-4)[Fuc(a1-3)]GlcNAc(b1-2)[Fuc(a1-2)Gal(b1-4)[Fuc(a1-3)]GlcNAc(b1-4)]Man(a1-3)[Fuc(a1-2)Gal(b1-4)[Fuc(a1-3)]GlcNAc(b1-2)Man(a1-6)]Man(b1-4)GlcNAc(b1-4)GlcNAc
In short: as §1

[10] = target: Fuc(a1-2)Gal(b1-4)[Fuc(a1-3)]GlcNAc(b1-3)Gal(b1-4)[Fuc(a1-3)]GlcNAc
In short: as §1

[11] = target: Fuc(a1-2)Gal(b1-4)[Fuc(a1-3)]GlcNAc(b1-3)Gal(b1-4)[Fuc(a1-3)]GlcNAc(b1-3)Gal(b1-4)[Fuc(a1-3)]GlcNAc
In short: as §1

[12] = target: Fuc(a1-2)Gal(b1-4)[Fuc(a1-3)]GlcNAc(b1-3)GalNAc
In short: as §1

[13] = target: Fuc(a1-2)Gal(b1-4)[Fuc(a1-3)]GlcNAc(b1-3)[Neu5Ac(a2-6)Gal(b1-4)GlcNAc(b1-6)]Gal(b1-4)Glc
In short: as §1

[14] = target: Fuc(a1-2)Gal3S(b1-4)GlcNAc
In short: as §1

[15] = target: Fuc(a1-2)Gal6S(b1-3)GlcNAc
In short: as §1

[16] = target: Fuc(a1-2)Gal6S(b1-3)GlcNAc6S
In short: as §1

[17] = target: Fuc(a1-2)Gal6S(b1-4)Glc
In short: as §1

[18] = target: Fuc(a1-2)Gal6S(b1-4)Glc6S
In short: as §1

[19] = target: Fuc(a1-2)[Gal(a1-3)]Gal
In short: as §1

[20] = target: Fuc(a1-2)[Gal(a1-3)]Gal(b1-3)GalNAc
In short: as §1

[21] = target: Fuc(a1-2)[Gal(a1-3)]Gal(b1-3)GalNAc(b1-3)Gal(a1-4)Gal(b1-4)Glc
In short: as §1

[22] = target: Fuc(a1-2)[Gal(a1-3)]Gal(b1-3)GlcNAc
In short: as §1

[23] = target: Fuc(a1-2)[Gal(a1-3)]Gal(b1-3)GlcNAc(b1-2)Man(a1-3)[Fuc(a1-2)[Gal(a1-3)]Gal(b1-3)GlcNAc(b1-2)Man(a1-6)]Man(b1-4)GlcNAc(b1-4)GlcNAc
In short: as §1

[24] = target: Fuc(a1-2)[Gal(a1-3)]Gal(b1-3)GlcNAc(b1-2)Man(a1-3)[Fuc(a1-2)[Gal(a1-3)]Gal(b1-3)GlcNAc(b1-2)Man(a1-6)]Man(b1-4)GlcNAc(b1-4)[Fuc(a1-6)]GlcNAc
In short: as §1

[25] = target: Fuc(a1-2)[Gal(a1-3)]Gal(b1-3)GlcNAc(b1-3)GalNAc
In short: as §1

[26] = target: Fuc(a1-2)[Gal(a1-3)]Gal(b1-3)GlcNAc(b1-6)GalNAc
In short: as §1

[27] = target: Fuc(a1-2)[Gal(a1-3)]Gal(b1-4)Glc
In short: as §1

[28] = target: Fuc(a1-2)[Gal(a1-3)]Gal(b1-4)GlcNAc
In short: as §1

[29] = target: Fuc(a1-2)[Gal(a1-3)]Gal(b1-4)GlcNAc(b1-2)Man
In short: as §1

[30] = target: Fuc(a1-2)[Gal(a1-3)]Gal(b1-4)GlcNAc(b1-2)Man(a1-3)[Fuc(a1-2)[Gal(a1-3)]Gal(b1-4)GlcNAc(b1-2)Man(a1-6)]Man(b1-4)GlcNAc(b1-4)GlcNAc
In short: as §1

B1: PX9961H-bth-557-24-557 (Bacteroides thetaiotaomicron) (protein)
chain: EETRTEVEKKNYMNNAEEAKDVLLGVYRTNTLDAMYGYYLSILFNLGTDISQVEGSGNENFRIIPTNSFPTTQSEVQQTWAALYTGIYRANDFLERISNKIGSYTTTDKKLATLYIAEARALRGMFYFELVRRFGNVVLMTSTQMSNQNPATYVQSAPEKVYEYIEDDLLYACDILPYATDDQYRESNDYRFSKGAALGLLTKVYATWAGYPVKDESKWEAAAKTARILVESGKHGLLKDYEQLWKNTCNGTWDPTESLIEISFYSPTVSGNSDPVGRIGKWNGVKTTAIAGVRGSCAANVKVVHTFVLDWREDVSDIRRDLSIANYQYTDTKKSLWVAGASDTDESAAEKDADPTKAQKNKQNYTPAKWDIQKYVTTNSFINNDKSNVNWYFLRYADVLLLYAEALNEWKHGPDAEAYNAINAVRRRGYGNPSNTSACDLPQGLDETSFREAVRKERSYELSFEGHRRQDLIRWGIYYKTVQATAKELGYWWEGTGSPNYSVATYTEEGKHELFPIPQRDMDLCIQFNQNPKW
[1]
  glycan array binding signal (z-score): -0.539
[2]
  glycan array binding signal (z-score): 0.047
[3]
  glycan array binding signal (z-score): -0.242
[4]
  glycan array binding signal (z-score): -0.46
[5]
  glycan array binding signal (z-score): -0.051
[6]
  glycan array binding signal (z-score): -0.38
[7]
  glycan array binding signal (z-score): -0.445
[8]
  glycan array binding signal (z-score): -0.11
[9]
  glycan array binding signal (z-score): -0.155
[10]
  glycan array binding signal (z-score): -0.479
[11]
  glycan array binding signal (z-score): -0.125
[12]
  glycan array binding signal (z-score): 1.45
[13]
  glycan array binding signal (z-score): 0.244
[14]
  glycan array binding signal (z-score): 0.014
[15]
  glycan array binding signal (z-score): -0.593
[16]
  glycan array binding signal (z-score): 0.185
[17]
  glycan array binding signal (z-score): -0.436
[18]
  glycan array binding signal (z-score): -0.278
[19]
  glycan array binding signal (z-score): -0.17
[20]
  glycan array binding signal (z-score): -0.242
[21]
  glycan array binding signal (z-score): 0.058
[22]
  glycan array binding signal (z-score): -0.095
[23]
  glycan array binding signal (z-score): -0.405
[24]
  glycan array binding signal (z-score): -0.179
[25]
  glycan array binding signal (z-score): -0.634
[26]
  glycan array binding signal (z-score): -0.16
[27]
  glycan array binding signal (z-score): -0.362
[28]
  glycan array binding signal (z-score): -0.408
[29]
  glycan array binding signal (z-score): -0.397
[30]
  glycan array binding signal (z-score): 1.82
